Source: PubChem BioAssay (NCATS)
Inconclusive means that the source gave no clear call. Such entries were picked first, then a sample of the others. For some of these results: A potency beside an inconclusive call is a rough fit, not a confirmed value. Active and inactive are the calls of the source. Unless noted, the call rests on the fitted dose curve; in most records, active means well fitted curve in the direction sought with a large enough effect; inconclusive means small, poorly fitted or top-dose-only effect, or another doubt; inactive means no such curve, though single readings can be large; an effect the other way counts as inactive or inconclusive.

Experiments:
[1] = Primary qHTS for inhibitors of nuclear receptor binding SET domain protein 2 (NSD2) in an isogenic RCH-ACV NSD2 p.E1099K mutant (9B) (AID 1645876); further: potency means the concentration at half of the fitted maximal effect; nearly all actives have a fitted effect of over 70% in size
[2] = Primary qHTS for inhibitors of nuclear receptor binding SET domain protein 2 (NSD2) in an RCH-ACV wild type WT cells (2C) (AID 1645877); details: activity change, negative = cell killing: at 44.9 µM (top of the series); further: nearly all actives have a fitted effect of over 70% in size; further: potency means the concentration at half of the fitted maximal effect; on activity change, negative = cell killing: on the % scale 0 is the no-effect control and ±100 the full control effect
NIH3T3 = experiment: Cytotoxic Profiling of Annotated Libraries Using Quantitative High-Throughput Screening (AID 1296008); details: Five cell lines viability, CellTiter-Glo ATP luminescence, 48-72 h; max response: active compounds read low; further: on the % scale 0 is the no-effect control and ±100 the full control effect; nearly all actives have a fitted effect of over 60% in size
Method in brief: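 Cytotoxicity was measured as CellTiter-Glo ATP luminescence, read after 10 min at room temperature. Compound treatment of the cells lasted 48 or 72 hr at 37 degrees Celsius in a qHTS format.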

C33A = experiment: Primary qHTS to identify gynecologic anti-cancer compounds using libraries of approved drugs and bioactive compounds (AID 1345084); details: Gynecologic cancer cell panel viability, ATPlite luminescence, 48 h; series mostly up to 57.5 µM; further: nearly all actives have a fitted effect of over 55% in size; further: potency means the concentration at half of the fitted maximal effect; on activity change, negative = cytotoxicity: on the % scale 0 is the no-effect control and ±100 the full control effect
Method in brief: (§1)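 In this quantitative HTS, cell killing is estimated from loss of ATP-dependent luciferase light. Cells see five compound concentrations over a 48 h exposure.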

CAOV3 = experiment: as above; details: Gynecologic cancer cell panel viability, ATPlite luminescence, 48 h; series mostly up to 57.5 µM
Method in brief: as §1

PA-1 = experiment: as above; details: Gynecologic cancer cell panel viability, ATPlite luminescence, 48 h; series mostly up to 57.5 µM
Method in brief: as §1

SKOV3 = experiment: as above; details: Gynecologic cancer cell panel viability, ATPlite luminescence, 48 h; series mostly up to 57.5 µM
Method in brief: as §1

Tov-21-G = experiment: as above; details: Gynecologic cancer cell panel viability, ATPlite luminescence, 48 h; activity change, negative = cytotoxicity: at 57.5 µM (top of the series)
Method in brief: as §1

[3] = qHTS Assay for Lipid Storage Modulators (AID 1519; calls by dose curve; further: on the % scale 0 is the no-effect control and ±100 the full control effect); details: Drosophila S3 cells, BODIPY lipid droplet/cell ratio, laser cytometry, cells loaded with oleic acid; activity change, negative = inhibition: at 57.5 µM (top of the series)
Method in brief: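 Cells seeded at 5,000 per well were treated with compounds over a concentration series and loaded with oleic acid (400 uM, as added). Lipid droplet fluorescence (488 nm excitation, 500-530 nm channel) was read by laser-scanning cytometry and normalized to 20 uM Triacsin C.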

AA1029 = experiment: qHTS profiling for inhibitors of Plasmodium falciparum proliferation (AID 504749); further: nearly all actives have a fitted effect of over 60% in size; further: potency means the concentration at half of the fitted maximal effect; details: P. falciparum in erythrocytes, SYBR Green DNA, 72 h; series mostly up to 28.7 µM
Method in brief: (§2)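 Infected RBCs, 0.3% parasitemia/2.5% Hct final; cpd 72 h, 37 C, 5% CO2; lysis buffer with saponin/triton/SYBR Green I, o/n RT dark; FI 485/535; norm. to artemisinin (0.29 uM) and DMSO.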

CP247 = experiment: as above; details: P. falciparum in erythrocytes, SYBR Green DNA, 72 h; series mostly up to 28.7 µM
Method in brief: as §2

CP266 = experiment: as above; details: P. falciparum in erythrocytes, SYBR Green DNA, 72 h; series mostly up to 28.7 µM
Method in brief: as §2

DIV14 = experiment: as above; details: P. falciparum in erythrocytes, SYBR Green DNA, 72 h; series mostly up to 28.7 µM
Method in brief: as §2

PC15 = experiment: as above; details: P. falciparum in erythrocytes, SYBR Green DNA, 72 h; series mostly up to 28.7 µM
Method in brief: as §2

[4] = qHTS of pediatric cancer cell lines to identify multiple opportunities for drug repurposing: Primary screen for NB-EBc1 cells (AID 1347095);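 further: plate controls were DMSO neutral control for no effect and bortezomib for full effect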
Method in brief: (§3)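 ATP-based luminescence (CellTiter-Glo) quantifies viability after a 48-hour exposure. Compounds are dosed across 8 or 11 final concentrations; DMSO and 2.3 µM bortezomib serve as controls.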

[5] = qHTS of pediatric cancer cell lines to identify multiple opportunities for drug repurposing: Primary screen for U-2 OS cells (AID 1347096);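 further: plate controls were DMSO wells for no effect and bortezomib positive control wells for full effect; nearly all actives have a fitted effect of over 50% in size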
Method in brief: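 Cells (500-1,000/well) rested 5 h, then received compounds for 48 h; metabolically active cells were measured by CellTiter-Glo luminescence. Final concentrations spanned up to 46 µM (MIPE, 11-point) or 0.59 nM-46 µM (NPC, 8-point) in primary screens, 11-point in follow-ups.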

[6] = qHTS of pediatric cancer cell lines to identify multiple opportunities for drug repurposing: Primary screen for Rh41 cells (AID 1347108);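 further: luminescence drop marks cytotoxic hits; nearly all actives have a fitted effect of over 70% in size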
Method in brief: as §3

[7] = molecular target: Phospholipid hydroperoxide glutathione peroxidase GPX4 (Homo sapiens) (UniProt P36969); experiment: Primary qHTS Assay for Inhibitors of Recombinant Selenoprotein Glutathione Peroxidase 4 (GPX4) (AID 1845192); further: on the % scale 0 is the no-effect control and ±100 the full control effect; nearly all actives have a fitted effect of over 65% in size
Chain of UniProt P36969 (P36969 whole entry, looked up): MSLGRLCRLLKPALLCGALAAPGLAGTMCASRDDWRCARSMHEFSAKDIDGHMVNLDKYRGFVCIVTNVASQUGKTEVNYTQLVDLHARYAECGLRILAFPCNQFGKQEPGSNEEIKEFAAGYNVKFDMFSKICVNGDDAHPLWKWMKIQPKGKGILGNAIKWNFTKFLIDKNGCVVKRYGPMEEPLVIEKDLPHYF
Method in brief: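 NADPH consumption, followed by fluorescence at 340/450 nm between 0 and 15 min, reports GPX4 activity via coupled glutathione reductase (100 nM). Enzyme 200 nM was pre-exposed to compound 30 min; 0.5 mM cumene hydroperoxide and 1 mM GSH served as substrates.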

MKL-2 = experiment: qHTS assay to identify novel small-molecules to repurpose for Merkel cell carcinoma treatment (AID 1296009); details: MCC and control cell lines, CellTiter-Glo viability, 72 h; activity change, negative = cytotoxicity: at 46 µM (top of the series); further: on the % scale 0 is the no-effect control and ±100 the full control effect; nearly all actives have a fitted effect of over 60% in size
Method in brief: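 72 hr, 37 degree celsius; NPC 8-pt / MIPE 11-pt dose response; compound pinned in DMSO; CellTiter-Glo, 10 min RT, luminescence; normalized to no-cell and DMSO controls.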

Es-2 = experiment: Primary qHTS to identify gynecologic anti-cancer compounds using libraries of approved drugs and bioactive compounds (AID 1345084); details: Gynecologic cancer cell panel viability, ATPlite luminescence, 48 h; series mostly up to 57.5 µM; further: nearly all actives have a fitted effect of over 55% in size; further: potency means the concentration at half of the fitted maximal effect; on activity change, negative = cytotoxicity: on the % scale 0 is the no-effect control and ±100 the full control effect
Method in brief: as §1
Tags describe the fitted curve by direction and shape.

CC(C)CCCCC(=O)N[C@@H](CO)C(=O)N[C@@H](CC(C)C)C(=O)[C@@]1(CO)CO1
inactive: max response (NIH3T3) -2.24% | Potency (C33A) | Potency (SKOV3)
inconclusive: Potency [1] 23 µM [inhibitor, single point] | Potency [2] 29 µM [inhibitor, single point] | Potency (CAOV3) 39.8 µM [cytotoxic, single point] | Potency (PA-1) 35.5 µM [cytotoxic, single point] | Potency (Tov-21-G) 25.1 µM [cytotoxic, single point]

O=C(O)[C@H]1C(=CCO)O[C@H]2CC(=O)N12
inconclusive: activity change, negative = inhibition [3] 4.38% | Potency (CP266) 4.78 µM [inhibitor, partial curve, poor fit]
inactive: Potency (AA1029) | Potency (CP247) | Potency (DIV14) | Potency (PC15)

COCC(=O)Nc1c(I)c(C(=O)NCC(O)CO)c(I)c(C(=O)N(C)CC(O)CO)c1I (configuration not stated)
inactive: Potency [4] | Potency [5] | Potency [6] | Potency [2] | Potency [7] | max response (NIH3T3) 1.05% | Potency (MKL-2)
inconclusive: Potency (Es-2) 7.08 µM [cytotoxic, single point]
